In the BET-seq Pho4 binding data (Le et al. 2018):
The other results are listed elsewhere or left out. Values were computed here from the reads of four pooled replicates and scatter widely.

molecular target: T1, Pho4 (S. cerevisiae) (UniProt P07270); experiment: relative binding free energy (BET-seq); higher = weaker binding; details: reference: library average
T1 sequence: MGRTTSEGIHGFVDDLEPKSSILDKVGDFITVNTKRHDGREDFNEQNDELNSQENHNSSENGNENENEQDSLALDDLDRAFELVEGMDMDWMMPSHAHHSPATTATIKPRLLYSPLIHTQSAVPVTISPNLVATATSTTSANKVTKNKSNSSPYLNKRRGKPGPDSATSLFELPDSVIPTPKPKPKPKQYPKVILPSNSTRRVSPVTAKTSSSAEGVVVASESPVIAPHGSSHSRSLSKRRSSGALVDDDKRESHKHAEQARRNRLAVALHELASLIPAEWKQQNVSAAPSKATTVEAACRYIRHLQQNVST

| Sequence | relative binding free energy [kcal/mol] |
| --- | --- |
| TATGGCACGTGACTTT | -0.06 |
| CTTAGCACGTGAGGTT | 0.1 |
| GTGTTCACGTGGTCGT | 0.17 |
| GCATGCACGTGTGTAT | 0.1 |
| TGATTCACGTGTCAGG | 0.31 |
| GCCTTCACGTGTGTGT | 0.32 |
| AGGCTCACGTGGGTAA | 0.03 |
| TGTTACACGTGAAAAT | 0.42 |
| ATGATCACGTGATGTC | 0.4 |
| AGGAACACGTGTGTTG | 0.01 |
| TTTGCCACGTGGCGGT | -0.13 |
| TTAAGCACGTGCAGGG | -0.13 |
| TTTGACACGTGGAAGA | 0.05 |
| TCTAGCACGTGGTTGG | -0.16 |
| GTCTGCACGTGTGTGT | 0.03 |
| GATGACACGTGTGCGT | 0.24 |
| GTTTGCACGTGGAGGT | 0.05 |
| ATGTTCACGTGTATTG | 0.23 |
| GTAGGCACGTGAAAGA | 0.21 |
| GTCTTCACGTGGATGG | 0.26 |
| AAGTACACGTGGAGGT | 0.19 |

| Sequence | relative binding free energy [kcal/mol] |
| --- | --- |
| ATGGACACGTGGCTAT | -0.02 |
| AGGGTCACGTGGAGGG | 0.11 |
| AATTTCACGTGGTGAC | 0.26 |
| TTTGCCACGTGTTGAA | 0.06 |
| GGTCGCACGTGGGTGG | -0.14 |
| ATGAACACGTGTCGGG | 0.12 |
| TGAGTCACGTGATGGT | 0.17 |
| CAGATCACGTGGCGGG | 0.07 |
| ATGGACACGTGTATGT | 0.15 |
| AATGTCACGTGTAGAG | 0.19 |
| GATGGCACGTGTAAAG | 0.08 |
| TTGGCCACGTGGAGGA | 0 |
| TGTTTCACGTGAAAGC | 0.37 |
| AAGGTCACGTGTAGAG | 0.09 |
| CGGTACACGTGTTAAG | 0.15 |
| TAAGACACGTGTTTTT | 0.13 |
| AAGTACACGTGTGGTC | 0.21 |
| AATGTCACGTGTTCTT | 0.19 |
| GTGAACACGTGTGAGG | 0.09 |
| CTCGTCACGTGGGAGG | 0.1 |
| TATCGCACGTGTTGTT | -0.01 |

| Sequence | relative binding free energy [kcal/mol] |
| --- | --- |
| ATTGACACGTGTGGCA | 0.08 |
| CGTTTCACGTGAGATG | 0.43 |
| CGGGTCACGTGGGTGA | -0.05 |
| GGCGGCACGTGGCGGC | 0.01 |
| TGGGGCACGTGGGCAA | -0.21 |
| TGGCACACGTGGGCAT | 0.09 |
| TGAGGCACGTGAACTG | 0.11 |
| GGGTACACGTGTCATG | 0 |
| GTGTGCACGTGGATGC | -0.05 |
| TTATTCACGTGCTAGG | 0.2 |
| AGTGCCACGTGAGGGT | 0.15 |
| AAGGTCACGTGTATAG | 0.02 |
| AGGCTCACGTGTGCTG | 0.23 |
| GGTATCACGTGTAGCG | 0.16 |
| GGGGGCACGTGAGGCC | -0.07 |
| ACGTGCACGTGCTGGT | -0.09 |
| GGGTGCACGTGGATTT | 0.15 |
| TGGGCCACGTGTTAAG | -0.05 |
| TGTAGCACGTGTTGCA | -0.18 |
| TGGGTCACGTGGGAGG | 0.07 |
| TAACGCACGTGATTGG | 0.06 |
